Assay results reported in PubChem BioAssay AID485344 (National Center for Advancing Translational Sciences (NCATS), 2010).
Hit rate of the full screen: of about 340,000 compounds, about 6,900 (2%) were called active. Cut-off read from the data, not from the text of the source: active = inhibition above about 30%; inactive = below that, where a call was filed. This is a selection; strong and weak results do not stand in their true shares. Entries without a call were filed so in the source.

The compounds below were run against D(2) dopamine receptor (Homo sapiens) (UniProt P14416) (assay: HTS Assay for Allosteric Antagonists of the Human D2 Dopamine Receptor: Primary Screen for Antagonists). Settings: HEK293 TREx D2 cells, calcium flux, dopamine EC80; at 10 µM; stronger effect = higher value.
Chain of UniProt P14416 (P14416 whole entry, looked up): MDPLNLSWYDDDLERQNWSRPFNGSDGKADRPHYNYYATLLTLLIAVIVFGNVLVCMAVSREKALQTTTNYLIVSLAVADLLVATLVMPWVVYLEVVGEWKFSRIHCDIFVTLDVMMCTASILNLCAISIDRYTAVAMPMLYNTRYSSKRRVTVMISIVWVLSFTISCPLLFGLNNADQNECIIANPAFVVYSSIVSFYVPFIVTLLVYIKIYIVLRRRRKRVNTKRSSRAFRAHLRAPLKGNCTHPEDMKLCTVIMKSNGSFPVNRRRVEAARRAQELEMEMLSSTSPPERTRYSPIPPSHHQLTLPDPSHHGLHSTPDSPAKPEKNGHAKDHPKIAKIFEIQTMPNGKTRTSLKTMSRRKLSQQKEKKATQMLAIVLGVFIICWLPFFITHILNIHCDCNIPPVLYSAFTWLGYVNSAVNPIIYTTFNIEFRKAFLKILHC
Summary of the method: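 In this primary screen, negative modulation is detected by tracking calcium flux after an EC80 dopamine challenge in inducible HEK293 T-REx D2 cells preexposed to test compound for 180 s.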
Note: 0% is about no effect.

SMILES | inhibition
Cc1ccc(NS(=O)(=O)c2ccc3[nH]c4c(c3c2)CCCCCC4)cc1Cl | -10.8%
CCOC(=O)c1sc(NC(=O)c2cc(CC)on2)c(C(=O)OCC)c1C | -20.5%
COCC(=O)N1c2nc(C(C)C)nn2C2(CCCCC2)[C@@H]2CCCC[C@@H]21 | -2.06%
Cc1c(C(=O)NCc2ccccc2)sc2nc3n(c(=O)c12)CCC3 | 12.3%
COc1ccc(-c2cc(C3CCN(Cc4cccc(C(F)(F)F)c4)CC3)[nH]n2)cc1 | active: 59.2%
CC(C)c1ccc(NC(=O)CN2C(=O)COc3ccc(S(=O)(=O)Nc4ccccc4)cc32)cc1 | -1.49%
O=[N+]([O-])c1cc(-c2nc(-c3cccnc3)no2)ccc1NCc1ccccc1 | 14.9%
CC(C)OCCCNC(=O)CCCn1c(SCC(=O)c2ccc(F)cc2)nc2c(sc3ccccc32)c1=O | -4.56%
O=C(Nc1ccc(Br)cc1)C1CCN(S(=O)(=O)c2cccc3nsnc23)CC1 | 24.1%
COc1ccc(-c2nn3c(=O)cc(CN4CCN(C(=O)Nc5ccc(C)c(Cl)c5)CC4)nc3s2)cc1 | -19.3%
COc1ccc(CCNC(=O)c2nnc(Cc3ccc(Cl)cc3)o2)cc1OC | 5.47%
O=C(NCC(c1ccco1)S(=O)(=O)c1ccc(Cl)cc1)c1ccccc1F (stereo not given) | 2.79%
Cc1ccc2oc(=O)c3cnn(CC(=O)Nc4cccc(C(F)(F)F)c4)c3c2c1 | 2.71%
CCCc1nnc(NC(=O)Cc2coc3cc(C)cc(C)c23)s1 | -16.7%
Cc1ccc(C(=O)N2CCc3cc(CNC(=O)COc4ccccc4)ccc32)cc1 | 15.5%
CCCN1CCN(CCCNC(=O)c2cnn(-c3ccc(F)cc3)c2-n2cccc2)CC1 | 2.47%
CCOc1ccc(Nc2nc3ccccc3n3c(CC)nnc23)cc1 | 17.6%
CCOC(=O)C1=C(c2ccccc2)NC(SCC(=O)Nc2ccc(C)cc2)=C(C#N)C1c1ccco1 (stereo not given) | active: 54.9%
O=C(Cn1c(=O)n(-c2ccccc2)c(=O)c2sc3ccccc3c21)N1CCCC1 | 5.14%
COc1ccc(C)cc1NC(=O)NC1CCCCCCC1 | active: 32%
CSc1cccc(NC(=O)CN(c2ccccc2)S(=O)(=O)N(C)C)c1 | 0.0641%
COc1ccc(C2C(=O)N(C3CCC(C)CC3)CC(=O)N2CCc2ccccc2)cc1OC (stereo not given) | 2.99%
CC1CCN(S(=O)(=O)c2ccc3c(c2)N(CC(=O)NC(C)c2ccccc2)C(=O)CO3)CC1 (stereo not given) | -12.5%
Cc1cc(N2CCCCC2)nc2ccc(NC(=O)c3cccc(F)c3)cc12 | 11.2%

SMILES | inhibition
Nc1c(-c2nc(-c3ccc(Cl)cc3)cs2)c2ccccn2c1C(=O)c1ccc2c(c1)OCO2 | -5.97%
COCCCNC(=O)c1cc2c(=O)n3cccc(C)c3nc2s1 | 1.26%
Cc1c(C)n(Cc2ccc(Cl)cc2)c2ccc(C(=O)NCCc3ccc(S(N)(=O)=O)cc3)cc12 | 18.4%
O=S(=O)(Nc1cccc(-c2ccc(N3CCCCC3)nn2)c1)c1cccc(F)c1 | -5.54%
CCCCc1nc2ccccc2n2c(-c3ccc(C)cc3)c3c(=O)n(C)c(=O)n(C)c3c12 | -10.3%
CC1CCc2c(sc(NC(=O)CCCOc3ccc(C(C)(C)C)cc3)c2C(N)=O)C1 (stereo not given) | 1.01%
O=c1c2ccccc2nc2n1CC/C2=C/N1CCN(c2cccc(C(F)(F)F)c2)CC1 | active: 48.3%
COc1ccc2ccccc2c1/C=N/NC(=O)c1ccc([N+](=O)[O-])cc1 | active: 70.5%
CCOc1ccc(-n2c(=O)c3c(C)c(C)sc3n(CC(=O)c3ccccc3)c2=O)cc1 | -2.66%
CCc1ccc(-n2nc(C)c3c(C)cc(=O)n(CC(=O)Nc4ccc(C)c(F)c4)c32)cc1 | 14.1%
Cn1c(=O)n(C)c2cc(NS(=O)(=O)c3ccc(Br)cc3)c(NCc3ccccc3)cc21 | -6.92%
CCN(CC)CCCNC(=O)c1c(C)oc2ncn(CC(C)C)c(=O)c12 | -5.57%
CN(C)c1ccc(NC(=O)CCSc2nc(-c3ccco3)cc(C(F)(F)F)n2)cc1 | 16%
CCCCN(C)S(=O)(=O)c1cc(-c2nnc3c4ccccc4c(C)nn23)ccc1C | 22.7%
O=C(Cn1c(=O)n(Cc2nc(-c3ccccc3)no2)c(=O)c2cc3c(cc21)OCO3)Nc1ccc(Cl)cc1 | -1.6%
Cc1ccc(C)c(N2CCN(c3ccc(NC(=O)c4cccs4)cc3C(=O)O)CC2)c1 | -9.4%
CCc1ccc(NC(=O)CC2C(=O)OCCN2CC)cc1 (stereo not given) | -5.96%
CCOc1ccccc1NC(=O)C(CC(C)C)NS(=O)(=O)c1ccc2c(c1)CCN2C(C)=O (stereo not given) | -13.5%
CCOC(=O)c1ccc(N2C(=O)c3n[nH]c(-c4cccs4)c3C2c2cccc(F)c2)cc1 (stereo not given) | 17.2%
CCc1ccccc1NC(=O)Cn1ncc2c(C)n(Cc3ccccc3F)c(C)c2c1=O | -4.64%
CC(C)CNC(=O)CCSc1nc(-c2ccc3c(c2)OCO3)cc(C(F)(F)F)n1 | -18.5%
CC(=O)N1c2ccc(S(=O)(=O)N3CCN(c4ccc(C)cc4C)CC3)cc2CC1C (stereo not given) | 2.14%
O=C(Cn1ccn(-c2ccc(F)cc2)c(=O)c1=O)NCCc1ccccc1 | -20.3%
CCOc1ccc(N(c2nc(-c3ccc(OC)c(OC)c3)no2)c2nc(-c3ccc(OC)c(OC)c3)no2)cc1 | 15.8%

SMILES | inhibition
COc1ccccc1N(CC(=O)NCCSCc1ccccc1Cl)S(C)(=O)=O | 7.74%
CCOC(=O)c1cnc2ccc(C)cc2c1Nc1ccc(OCc2ccccc2Cl)cc1 | -3.15%
O=C(c1cc(-c2ccc(Br)cc2)n[nH]1)N1CCN(S(=O)(=O)c2ccc(Br)cc2)CC1 | -2.41%
CCC(=O)N1N=C(c2ccc(OC)cc2)CC1c1cn(-c2ccccc2)nc1-c1cccs1 (stereo not given) | -10.2%
O=[N+]([O-])c1cc(Cl)ccc1NCCNc1ncc(C(F)(F)F)cc1Cl | active: 36.2%
CCOC(=O)c1c(SCC(=O)Nc2nc3ccc(C)cc3s2)nc(=O)[nH]c1C | -28.3%
Cc1ccc(Cl)cc1NC(=O)COC(=O)CC(C)(C)C | active: 40.7%
Cc1cccc(CSc2cn(CC(=O)N3CCCCC3)c3ccccc23)c1 | 7.99%
Cc1cc(C)c2sc(N(Cc3cccnc3)C(=O)CCS(=O)(=O)c3ccccc3)nc2c1 | -20.4%
O=C(Cn1cc(SCc2cccc(F)c2)c2ccccc21)N1CCOCC1 | -1.53%
COc1ccc2oc(-c3ccc(C)c(NC(=O)c4cccnc4)c3)nc2c1 | 13.6%
COc1cc(OC)c(NC(=O)CSc2nccn2C)cc1Cl | 15.9%
CC1CCN(c2oc(-c3cccs3)nc2S(=O)(=O)c2ccc(Cl)cc2)CC1 | 11.2%
Cc1ccc(CNC(=O)c2ccc(-n3c(C)cc4c3CCCC4)cc2)cc1 | -5.78%
O=C(NC1CCN(Cc2ccccc2)CC1)c1ccccc1OCc1ccccc1Cl | active: 84.5%
Cc1ccc(OCC(=O)Nc2ccc3nc(SCC(=O)N4CCCC4)sc3c2)cc1 | 1.21%
CC(C)C(NS(=O)(=O)c1ccc2c(c1)oc(=O)n2C)C(=O)N1CCN(C2CCCCC2)CC1 (stereo not given) | active: 30.6%
CNC(=O)c1ccc2c(c1)N=C(C)c1cc(C)ccc1S2 | -6.37%
O=C(CSc1nc2cc(C(=O)NC3CCCC3)ccc2c(=O)n1CC1CCCO1)c1ccc(F)cc1 (stereo not given) | 1.72%
CCCCn1c(COc2cccc(OC)c2)nc2ccccc21 | -0.0239%
COc1ccc(CCN2CC(C(=O)NCCc3ccc(C)cc3)CC2=O)cc1OC (stereo not given) | -4.97%
Cc1onc(-c2ccccc2)c1C(=O)OCC(=O)Nc1ccc(Cl)cc1 | active: 37.4%
COc1cc(NC(=O)c2cc3c(=O)oc4ccc(C)cc4c3s2)cc(OC)c1OC | -1.53%
CCn1cc(S(=O)(=O)c2ccccc2)c(=O)c2cc(C)ccc21 | -7.16%

SMILES | inhibition
CCOC(=O)c1[nH]c2ccccc2c1NC(=O)c1ccc(OC(C)C)cc1 | -1.15%
COc1cc(OC)cc(C(=O)Nc2ccc(S(=O)(=O)Nc3cc(C)nc(C)n3)cc2)c1 | -23.5%
CCOC(=O)c1ccc(N2C(=O)c3n[nH]c(-c4cccs4)c3C2c2ccc(C)cc2)cc1 (stereo not given) | -1.11%
CCCN(CCC)CCCNC(=O)Cn1ncc2c3ccccc3n(Cc3ccc(F)cc3)c2c1=O | -0.115%
CCCCOc1cccc(C(=O)Nc2cc3nn(-c4ccc(F)cc4)nc3cc2C)c1 | 8.46%
CC(C)(C)c1ccc(-c2noc(CCC(=O)Nc3cccnc3)n2)cc1 | active: 35.8%
Cc1nc(C)c(-c2ccc(SCC(=O)Nc3ccccc3F)nn2)s1 | 1.06%
COc1cccc(CNC(=O)CCNS(=O)(=O)c2cccc3nsnc23)c1 | -8.25%
Cc1cc2ccccc2n1-c1ccc(C(=O)N2CCCCC2)s1 | -11.4%
Cc1ccccc1NC(=O)c1sc2nc(-c3ccncc3)ccc2c1N | -6.56%
Brc1ccc(-c2cc3c(N4CCN(c5ccccc5)CC4)nccn3n2)cc1 | 20.8%
O=C(CC1C(=O)N(c2ccc(F)cc2)C(=O)N1Cc1cccnc1)Nc1ccc(F)cc1 (stereo not given) | -4.64%
COc1ccc(CC(=O)Nc2c(C(=O)Nc3ccccc3F)oc3ccccc23)cc1 | -17%
COc1ccc(NC(=O)CC2C(=O)N(c3ccc(C)cc3)C(=O)N2CCc2ccccc2)cc1 (stereo not given) | 4.54%
CC(=O)Nc1ccc(/C=N/NC(=O)CCN2CCN(c3ccccc3)CC2)cc1 | active: 51.4%
CC(=O)Cn1nnc2sc(-c3ccccc3)cc2c1=O | -15.4%
Cc1c(Cl)cccc1Nc1sc(C(=O)c2ccccc2)c(N)c1S(=O)(=O)c1ccccc1 | -18.6%
COCCNC(=O)c1cc2n(n1)CCCN(Cc1ccc(C)cc1)C2=O | 3.98%
CCOC(=O)N1CCc2c(sc3c2c(=O)n(Cc2ccccc2)c(=O)n3Cc2c(F)cccc2Cl)C1 | 9.63%
CN(Cc1ccccc1)C(=O)c1cc2c(=O)n(C)c3ccccc3c2s1 | 15.4%
O=C1CC(c2nc3ccccc3n2Cc2c(F)cccc2Cl)CN1c1cccc(C(F)(F)F)c1 (stereo not given) | -5.57%
CSc1cccc(N2C(=O)N(Cc3ccc([N+](=O)[O-])cc3)c3ccccc3S2(=O)=O)c1 | -19.3%
Cc1ccc(S(=O)(=O)N2CCCC(c3nc4c(nnn4Cc4ccc(OC(F)(F)F)cc4)c(=O)[nH]3)C2)cc1 (stereo not given) | 3.59%
